Structures are written as SMILES. Over roughly 110,000 compounds, “z-score” has its median near -0.1; the highest 2% begin near 2. This is one part of the list. Activity calls are given as the source filed them.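 Rule for the calls: active = z-score in the third read window above 3 or below -3; inactive = the rest.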 Non-standard residues stand in square brackets, D forms with d. Residues, ends and D or L forms follow the SMILES beside them. ξ: configuration not given here. *: point of attachment. Boc = CC(C)(C)OC(=O)*; ξP = O=C(O)C1CCCN1

In the assay the target is Metabotropic glutamate receptor 8 (Rattus norvegicus) (UniProt P70579). As to the kind of experiment: mGluR8 Gi/Go-coupled signaling modulation – cell-based, rat, thallium flux, HTS, primary screen (AID 488969). The following applies: HEK293 rat mGluR8, GIRK (G protein-gated inwardly rectifying potassium channel) thallium flux, FluoZin2; at 10 µM; stronger effect = higher value; submaximal glutamate (EC20) added with thallium.
Chain of UniProt P70579 (P70579 whole entry, looked up): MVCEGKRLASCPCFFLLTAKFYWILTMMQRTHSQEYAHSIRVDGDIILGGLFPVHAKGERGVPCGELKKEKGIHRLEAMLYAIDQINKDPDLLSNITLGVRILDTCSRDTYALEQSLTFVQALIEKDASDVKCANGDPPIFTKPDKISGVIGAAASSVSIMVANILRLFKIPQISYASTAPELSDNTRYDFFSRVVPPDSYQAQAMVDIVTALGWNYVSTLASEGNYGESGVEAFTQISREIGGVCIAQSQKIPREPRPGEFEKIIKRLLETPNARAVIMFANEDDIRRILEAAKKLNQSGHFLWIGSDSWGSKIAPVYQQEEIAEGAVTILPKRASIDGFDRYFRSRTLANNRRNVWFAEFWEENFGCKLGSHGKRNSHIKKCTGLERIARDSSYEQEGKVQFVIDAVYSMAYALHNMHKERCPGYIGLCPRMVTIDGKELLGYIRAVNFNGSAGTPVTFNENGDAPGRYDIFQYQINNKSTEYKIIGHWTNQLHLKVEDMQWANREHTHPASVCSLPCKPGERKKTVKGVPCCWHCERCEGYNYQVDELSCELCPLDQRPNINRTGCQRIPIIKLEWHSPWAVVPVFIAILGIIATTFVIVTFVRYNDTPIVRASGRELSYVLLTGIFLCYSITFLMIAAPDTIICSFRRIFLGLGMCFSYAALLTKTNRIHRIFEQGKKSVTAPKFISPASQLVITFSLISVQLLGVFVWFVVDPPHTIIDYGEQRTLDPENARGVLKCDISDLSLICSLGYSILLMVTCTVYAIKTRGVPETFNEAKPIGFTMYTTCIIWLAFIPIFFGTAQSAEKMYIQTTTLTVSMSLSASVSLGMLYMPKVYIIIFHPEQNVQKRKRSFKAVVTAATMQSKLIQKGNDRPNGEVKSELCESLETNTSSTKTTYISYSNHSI
Consider `CS(=O)(=O)Nc1ccc(C(=O)N2CCN(c3ccccc3F)CC2)cc1`, for which the z-score was -0.448. Consider `CC(C)CC(=O)N1CCN(Cc2cccc(F)c2)CC1`, for which the z-score is -0.318. `C=CCOC(=O)C1=C(C)OC(N)=C(C#N)C1c1ccc(OC)c(CSc2ccccn2)c1` (stereo not drawn): the z-score was -0.0249.

Take `COc1ccc(NC(=O)COC(=O)C23CCC(=O)N2c2ccccc2S3)cc1` (stereo not drawn): the z-score is -0.0872. For `O=C(Cc1ccc(Cl)cc1)Nc1ccccc1Sc1ccccc1`, the z-score is -0.361. As for `Cc1nn2c(-c3ccc(Cl)cc3Cl)nnc2s1`, the figure is 0.15; as for `O=C(c1cccc2ccccc12)N1CCN(c2ccc([N+](=O)[O-])c(NCc3ccco3)c2)CC1`, -0.218; as for `Cc1cc(NC(=O)CSC2=NCCS2)no1`, -0.162. On to `COc1cccc(OCCOCCNCCO)c1`, for which the z-score is 0.822. To `Cn1c(N)c(C(=O)COC(=O)CSc2ccc(Cl)cc2)c(=O)n(C)c1=O` belongs -0.34; to `CCOc1ccc(N(CC(=O)NC(C)CC)S(=O)(=O)c2c(C)noc2C)cc1` (stereo not drawn), 0.196; to `CCOC(=O)NCC(C#CCN(CC)CC)N(CC)CC` (stereo not drawn), -0.109.

Regarding `COc1ccc(-n2c(-c3cccc(C)c3[N+](=O)[O-])n[nH]c2=S)cc1`, the z-score was -0.217. To `Cc1ccc(OCC(=O)NC(=S)Nc2ccc(Br)c(C)n2)cc1` belongs 1.02; to `CC/C(=N\NC(=S)Nc1ccc(OC)cc1)c1ccc(OC(F)F)cc1`, active: 7.5. As for `CCN(CC)S(=O)(=O)c1ccc(N2CCOCC2)c(NC(=O)c2c3c(nc4ccccc24)CCC3)c1`, the figure is -0.0797; as for `CC(C#N)On1c(SC(C)C#N)nc2ccccc2c1=O` (stereo not drawn), -0.416. To `O=C(CN1C2=NCCN2c2ccccc21)N1CCOCC1` belongs 0.0491; to `CS(=O)(=O)N1CCN(C(=O)NC23CC4CC(CC(C4)C2)C3)CC1`, 0.72.

In turn, `Cc1cc(C)c(S(=O)(=O)Nc2ccc[nH]c2=O)c(C)c1` displayed a z-score of 0.21. To `Cc1c(NC(=O)/C(C#N)=C/C2CC=CCC2)c(=O)n(-c2ccccc2)n1C` (stereo not drawn) belongs -0.166; to `CCOc1ccccc1C(=O)N1CCN(c2cccc(Cl)c2)CC1`, 0.326; to `COc1ccc(OC)c(/C=C/C(=O)c2ccc(Cl)cc2)c1`, -0.0712. As for `Cc1nc(SCC(=O)c2ccc(Cl)cc2)c([N+](=O)[O-])[nH]1`, the z-score was -0.477. As for `CC12CN(S(=O)(=O)c3ccccc3)CC(C)(CN(S(=O)(=O)c3ccccc3)C1)C2`, the figure is -0.114. As for `Cc1nnc(NC(=O)c2ccncc2)s1`, the figure is -0.232. As for `Cc1c(C(=O)Nc2ccc(-c3nnc4n3CCCCC4)cc2)oc2c1ccc1ccccc12`, the figure is -0.227. Turning to `O=C1CC(c2ccc(S(=O)(=O)NCc3ccccc3)cc2)CN1` (stereo not drawn), the z-score was -0.121. To `Cc1nc(NCc2ccccc2)[nH]c(=O)c1CCC(C)C` belongs -0.321; to `O=C1CC(c2ccccc2)n2nc(N3C(=O)CCC3=O)nc2N1` (stereo not drawn), 0.146. As for `CCOc1ncccc1C(=O)OCc1ccccc1`, the figure is -0.268; as for `CCOC(=O)CSc1nnc2cc(C)c3ccccc3n12`, -1.09; as for `CCOC(=O)c1cc(C(O)(C(F)(F)F)C(F)(F)F)c(/N=C/N(C)C)o1`, -0.281. As for `O=C(CN1CCN(Cc2ccccc2)C1=O)NCc1ccc(Cl)cc1`, the figure is -0.177; as for `CC(=O)C1=C(C)NC(SCC(=O)c2ccc(C)cc2)=C(C#N)C1c1ccco1` (stereo not drawn), -0.0288. Consider `COc1ccc(-c2cc(C(=O)N3CCN(c4ccccc4)CC3)no2)cc1OC`, for which the z-score is -0.94. To `Cc1cccc(N2CCN(C(=O)c3cc4c(=O)n(C)c5ccccc5c4n3C)CC2C)c1` (stereo not drawn) belongs -1.07. For `COc1ccccc1-c1nnc2sc(-c3cnccn3)nn12`, the z-score is -0.623. As for `COC(=O)[C@H](Cc1ccccc1)NC(=O)NCC1CCCO1` (stereo partly drawn), the z-score was -0.453. Consider `O=[N+]([O-])c1ccc2nc(/C=C/c3ccc(Cl)cc3)[nH]c2c1`, for which the z-score is -0.327. As for `Cc1c(NS(=O)(=O)c2ccc3c(c2)c(=O)n(C)c(=O)n3C)c(=O)n(-c2ccccc2)n1C`, the figure is -0.158; as for `Cc1ccc(S(=O)(=O)N2CCN(CC(=O)N/N=C/C=C/c3ccccc3)CC2)cc1`, 0.941. As to `CC(C)Nc1nc(N(c2ccccc2)c2ccccc2)nc(-n2ccnc2)n1`, the z-score was -0.425. `CCCn1nnnc1SCC(=O)N1CCCc2ccccc21`: the z-score is -0.102. To `Cc1noc(C)c1C(=O)NCCc1ccc(Cl)cc1` belongs -0.377. To `COc1ccc(C(=O)N(Cc2nc(-c3ccc(C)cc3)no2)C(C)C)cc1OC` belongs -0.736; to `COc1ccc(N(Cc2cc3cc(OC)ccc3[nH]c2=O)C(=O)c2cccnc2)cc1`, -0.168; to `COc1ccc(C2(O)CCN(Cc3nnnn3Cc3ccc(C)cc3)CC2)cc1`, 0.0757. As for `CCC(NC(=O)c1ccccc1NC(=O)c1ccco1)C(=O)NNC(=O)c1ccc(OC)cc1` (stereo not drawn), the figure is -0.125. With `COc1ccc(C2CC(c3ccccc3)=NN2C(=O)COC(=O)C2CC2)cc1` (stereo not drawn), the z-score is -0.418.

As for `COc1ccc(Oc2ccc(N/C=C3\CCCC3=O)cc2)cc1`, the z-score was -0.269.

Regarding `CCCN(CCC)CCCNC(=O)CS(=O)Cc1nc(-c2ccc(OC)c(OC)c2)oc1C` (stereo not drawn), the z-score is -0.1. As for `Cc1ccc(S(=O)(=O)NCC(=O)OCC(=O)c2ccc(Br)s2)cc1`, the figure is -0.0701. To `Cc1cc(N/N=C(/CCC(=O)O)C(=O)O)nc2ccccc12` belongs -0.145.

Turning to `CCOC(=O)N1CCN(C(=O)CSc2nnc(-c3cccc(OC)c3)o2)CC1`, the z-score was -0.788.

On to `COc1ccc(NC(=O)CSc2nnc(Cc3cccs3)n2-c2ccc(C)cc2)cc1`, for which the z-score was -0.131. As for `CCOC(=O)c1[nH]c2ccc(OC)cc2c1NC(=S)N1CCN(c2cccc(C)c2C)CC1`, the figure is -0.0911; as for `Cc1cccc(-n2c(SCCC(=O)O)nnc2-c2cccs2)c1C`, -2.58; as for `Cc1sc2nc(SCC(=O)NCc3ccco3)n(CCc3ccccc3)c(=O)c2c1C`, 0.83. As to `CCC(C)NC(=O)CN(c1cc(Cl)ccc1OC)S(C)(=O)=O` (stereo not drawn), the z-score is -0.17.

`CCCCCn1cnc2sc(-c3ccccc3)cc2c1=O`: the z-score is -0.142. Take `Cc1ccccc1-n1cc(C(=O)c2cc(Cl)ccc2O)cc(C#N)c1=O`: the z-score was -0.448.

In the case of `CCOc1ccc(Br)cc1S(=O)(=O)Nc1ccc(NC(=O)c2ccccc2F)cc1`, the z-score is -0.316. To `COc1cc(C(=O)Nc2nccs2)cc(OC)c1OC` belongs -0.53; to `CN(Cc1nc(-c2ccncc2)no1)S(=O)(=O)c1ccccc1`, 0.00952; to `CN1CCCC(OC(=O)CCCCC(=O)OC2CCCN(C)C2)C1` (stereo not drawn), -0.765. To `COc1ccc(/C(N)=N/OC(=O)C2CCC(=O)N2S(=O)(=O)c2ccc(C)cc2)cc1OC` (stereo not drawn) belongs -0.516; to `CC/C(=C/c1sc2ccccc2[n+]1CC)SC`, -0.291. Regarding `CCOCCCn1c(-c2ccc(Cl)cc2)n[nH]c1=S`, the z-score was -0.227. To `COC(=O)Nc1ncc(CN2C(=O)c3ccccc3C2=O)s1` belongs 0.027. In the case of `COc1ccc(C(=O)NCc2ccc(-c3nc4ccccc4s3)cc2)cc1OC`, the z-score was -0.436.

Compound `CN1CCN(C(=O)C2CC(c3c(F)cccc3Cl)=NO2)CC1` (stereo not drawn) yielded a z-score of 0.348. As for `CCS(=O)(=O)N1CCCC(C(=O)NCc2cccc(OC)c2)C1` (stereo not drawn), the figure is -0.018; as for `O=C(NC1CCCC1)C1CC(=O)N(CCc2ccccc2)C1` (stereo not drawn), -1.38; as for `NC(=O)C1CCN(CC(=O)Nc2cccc(C(=O)Nc3cccc(C(F)(F)F)c3)c2)CC1`, -0.137. Regarding `COc1cc(/C=N/NC(=O)c2cnn3c(C)cc(-c4ccccc4)nc23)ccc1O`, the z-score is -0.354. For `COc1ccc(NC(=O)CN(c2cccc(F)c2)S(C)(=O)=O)cc1OC`, the z-score was found to be 0.437. To `COC(=O)CNC(=O)C1CCCN1C(=O)OC(C)(C)C` (stereo not drawn) (Boc-[ξP]-Gly-OMe) belongs -0.536. For `CC1(C)C2([N+](=O)[O-])CN3CC1([N+](=O)[O-])CN(C2)C3c1ccccc1` (stereo not drawn), the z-score is -0.289. As for `Cc1c(C(=O)NCc2ccccc2)cnn1-c1ccccc1`, the figure is 1.21.

`O=C(O)C1CCCCC1C(=O)NCCc1cccc(Cl)c1` (stereo not drawn) registered a z-score of 1.2.

With `CCOC(=O)C1C(=O)C=C(c2cccc(NS(C)(=O)=O)c2)CC1c1ccco1` (stereo not drawn), the z-score is -0.737. As for `CCN(c1cccc(C)c1)S(=O)(=O)c1c(C)[nH]c(=O)[nH]c1=O`, the figure is -0.335. With `Cc1ccc(C)c(NC(=O)c2cc(-c3ccccc3)nn2-c2ccccc2)c1`, the z-score came to 2.08. To `Cc1cc(NC(=O)c2cc(-c3cccc(Cl)c3)on2)no1` belongs -0.0393; to `COCCn1nnnc1CN(CCc1ccccc1)Cc1cc2cc(OC)ccc2[nH]c1=O`, -0.649.

For the compound `Cc1ccc(-n2c(C)nn(-c3ncc(C(F)(F)F)cc3Cl)c2=O)cc1`, the z-score was -0.113. To `Cc1c(Cl)cccc1NC(=S)NC(=O)CCN1C(=O)c2ccccc2C1=O` belongs 0.227. To `C=CCn1c(-c2ccccc2)nc(=S)c2c1CC(C)(C)OC2` belongs 0.225. `COc1ccccc1NC(=S)N(Cc1ccccc1)Cc1ccccn1`: the z-score was -1.17.

For the compound `Cc1ccc(Cc2cnc(N)s2)o1`, the z-score is -0.129. `CCC(NC(=O)c1ccccc1NC(=O)c1ccccc1)C(=O)NNC(=O)CSc1nc2ccccc2o1` (stereo not drawn) yielded a z-score of 0.033.

For the compound `COc1cccc(N2CCN(Cc3nc4ccccc4c(=O)[nH]3)CC2)c1`, the z-score came to 0.494. As for `CCc1nc(SCC(=O)NCCc2ccc(OC)c(OC)c2)c2c(=O)n(C)c(=O)n(C)c2n1`, the figure is 0.573.

The compound `Oc1ccc(-n2cnnn2)cc1` gave a z-score of 0.0713. To `O=C(CSc1nnc(-c2ccc(Cl)s2)o1)N1CCCc2ccccc21` belongs -0.616. To `COc1ccc(CC(=O)O/N=C(\N)c2cccc([N+](=O)[O-])c2)cc1` belongs -0.132; to `CCOc1ccc(Nc2oc(-c3cccs3)nc2C#N)cc1`, -0.22; to `O=C(NCc1n[nH]c(=S)n1-c1ccccc1)c1ccc(S(=O)(=O)N2CCOCC2)cc1`, -0.00498. To `N#CCC1c2ccccc2CCN1C(=O)Nc1ccc(Cl)cc1` (stereo not drawn) belongs -1.47; to `Cc1occc1C(=O)Nc1ccc(S(=O)(=O)N2CCN(C)CC2)cc1`, -0.575; to `Cc1ccc(NC(=O)Cn2cnc3c(=O)n(C)c(=O)n(C)c32)c(C)c1`, 0.389. Compound `CCOC(=O)C1CCN(c2c(NC3CCCCCCC3)c(=O)c2=O)CC1` registered a z-score of 0.385. As for `CNS(=O)(=O)c1cccc2cccnc12`, the figure is -0.0836. As for `CC1(C)CC(=O)C(C(c2ccco2)C2C(=O)CC(C)(C)CC2=O)C(=O)C1`, the figure is 0.141; as for `O=C(Nc1cccc(Cl)c1)Nc1nccs1`, active: 10.2.

Take `Cc1cc(C)cc(NC(=S)NCCSc2ccc(Cl)cc2)c1`: the z-score was -0.14. In the case of `COc1ccc(CN2C(=O)CC(Cc3cc(C)cc(C)c3)C2=O)cc1OC` (stereo not drawn), the z-score was -0.385.

Source of the values: PubChem BioAssay AID488969 (Vanderbilt High Throughput Screening Facility, 2010).
